Source: the supplement of paper PMC12067230
The data scatter; read single values as rough.

Assay: amyloid nucleation score relative to library mode (yeast Sup35 reporter selection) (log enrichment difference); higher = more amyloid nucleation; sequences are the first 22 residues of the Bri2 peptide extended by up to 12 random residues
Conditions: random library (experiment): 2;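 active = nucleation score significantly above 0 at FDR 0.05; inactive = not significantly above 0 or absent from output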
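Note: [psi-pin-] Saccharomyces cerevisiae expressing SupN fusions, induced by 100 µM Cu2SO4, selected 7 d at 30 °C without adenine and uracil, scored by deep sequencing of output versus input.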

| Sequence | amyloid nucleation score |
| --- | --- |
| EASNCFAIRHFENKFAVETLICLASAAVASLLVW | inactive |
| EASNCFAIRHFENKFAVETLICIFFMNRERVY | 3.59 |
| EASNCFAIRHFENKFAVETLICRKNNDWRSLICY | inactive |
| EASNCFAIRHFENKFAVETLICVRRY | inactive |
| EASNCFAIRHFENKFAVETLICCVVRNRGHLSSE | 2.62 |
| EASNCFAIRHFENKFAVETLICLKKANRRLFTVW | 3.24 |
| EASNCFAIRHFENKFAVETLICAQLQTRSRPWLT | inactive |
| EASNCFAIRHFENKFAVETLICCVTFV | 7.2 |
| EASNCFAIRHFENKFAVETLICKVMILSCYMGEE | 8.52 |
| EASNCFAIRHFENKFAVETLICLGCVRIEGFFRG | 7.31 |
| EASNCFAIRHFENKFAVETLICGSVYGLVAFCMS | 4.14 |
| EASNCFAIRHFENKFAVETLICFKLWTKCLRSEG | inactive |
| EASNCFAIRHFENKFAVETLICLLSHRDPLQVSG | inactive |
| EASNCFAIRHFENKFAVETLICVSVLLH | -0.329 |
| EASNCFAIRHFENKFAVETLICEHGF | inactive |
| EASNCFAIRHFENKFAVETLICIYVLSCMLAMTR | inactive |

| Sequence | amyloid nucleation score |
| --- | --- |
| EASNCFAIRHFENKFAVETLICTYMDRVLSVSSN | inactive |
| EASNCFAIRHFENKFAVETLICLLLNYVVVVFRP | inactive |
| EASNCFAIRHFENKFAVETLICMFSNCSFFCVKL | 0.741 |
| EASNCFAIRHFENKFAVETLICPVLKDVFSNKMA | inactive |
| EASNCFAIRHFENKFAVETLICDCLSLSCQVFPR | 7.6 |
| EASNCFAIRHFENKFAVETLICAVSNHVRFLYPV | inactive |
| EASNCFAIRHFENKFAVETLICMYARSGLLNMVR | 1.31 |
| EASNCFAIRHFENKFAVETLICFNMRFVSVVAGW | inactive |
| EASNCFAIRHFENKFAVETLICMRRNVQGYGKS | 0.315 |
| EASNCFAIRHFENKFAVETLICFIQMMIQHRHRL | inactive |
| EASNCFAIRHFENKFAVETLICPDRISQLFFFPS | inactive |
| EASNCFAIRHFENKFAVETLICVKPIS | inactive |
| EASNCFAIRHFENKFAVETLICISDSIWMLRFSG | inactive |
| EASNCFAIRHFENKFAVETLICGMCIMMLVICLN | 5.82 |
| EASNCFAIRHFENKFAVETLICPVFRDECQNCIR | 6.19 |

Same assay, conditions: random library (experiment): 3

| Sequence | amyloid nucleation score |
| --- | --- |
| EASNCFAIRHFENKFAVETLICVEYVRTALDQLS | inactive |
| EASNCFAIRHFENKFAVETLICARVLARQSKVER | inactive |
| EASNCFAIRHFENKFAVETLICAFTNVGVFYFRD | inactive |
| EASNCFAIRHFENKFAVETLICFFCCS | 8.95 |
| EASNCFAIRHFENKFAVETLICLGHGVGREQQWR | 3.26 |
| EASNCFAIRHFENKFAVETLICEAVAERAQCSDG | inactive |
| EASNCFAIRHFENKFAVETLICVRSGPSSWSLPG | 2.59 |
| EASNCFAIRHFENKFAVETLICLIT | 7.11 |
| EASNCFAIRHFENKFAVETLICCYANG | 6.32 |
| EASNCFAIRHFENKFAVETLICASCMRRSVMLWR | inactive |
| EASNCFAIRHFENKFAVETLICGRYSAGKLRYWA | inactive |
| EASNCFAIRHFENKFAVETLICGVCRPVEGGREA | inactive |
| EASNCFAIRHFENKFAVETLICHGSPYT | inactive |
| EASNCFAIRHFENKFAVETLICRTSLSSGVILHA | inactive |
| EASNCFAIRHFENKFAVETLICDQVRMRPVRALM | inactive |
| EASNCFAIRHFENKFAVETLICAIGLMLGRLSRG | inactive |
| EASNCFAIRHFENKFAVETLICVVITWGKERRCD | inactive |
| EASNCFAIRHFENKFAVETLICVYTE | inactive |
| EASNCFAIRHFENKFAVETLICERLSGQPIVPVW | inactive |
| EASNCFAIRHFENKFAVETLICDEARTALVRS | inactive |
| EASNCFAIRHFENKFAVETLICLCVALTDRRSAL | inactive |
| EASNCFAIRHFENKFAVETLICCRCMR | 7.73 |
| EASNCFAIRHFENKFAVETLICLLIPFVLVLFRM | inactive |
| EASNCFAIRHFENKFAVETLICPEELW | inactive |
| EASNCFAIRHFENKFAVETLICDMVLQEGSEGKR | inactive |
| EASNCFAIRHFENKFAVETLICKEFVGTSSHGVG | inactive |
| EASNCFAIRHFENKFAVETLICKSLRLYAEGRSV | 7.02 |
| EASNCFAIRHFENKFAVETLICFTRAQTSSRGGS | 2.36 |
| EASNCFAIRHFENKFAVETLICWRQWQRYRGPGA | 4.37 |
